From the supplement of paper PMC6089552
± gives the standard deviation of the averaged measurements. Out of some 3,200 compounds screened, about 300 (9.4%) showed activity. The list shows a part of the results, in another mix than the full data.

Test system: A673/TR/shEF
Assay: cell viability (LOESS-normalised, relative to median of negative controls) (log2 ratio); higher = more viable cells (less compound effect), active = hit call of the paper (over 3 MAD below the median)
Settings: treatment time: 72 h
Outline: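 For three days, A673/TR/shEF Ewing sarcoma cells in 384-well plates (1,500 per well) were treated with library compounds at two or more concentrations or with DMSO controls, after doxycycline had been added or withheld 24 h beforehand to induce EWS-FLI1 shRNA knockdown. Viability was read by CellTiter-Glo luminescence on an Envision reader. The data were LOESS-corrected per plate, divided by the median of negative controls and log2-transformed.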

[1] = 0.25 µM, library screen: screen1, EWS-FLI1 expression: high (no doxycycline)
[2] = 0.25 µM, library screen: screen1, EWS-FLI1 expression: low (doxycycline-induced shRNA knockdown)
[3] = 2.5 µM, library screen: screen1, EWS-FLI1 expression: high (no doxycycline)
[4] = 2.5 µM, library screen: screen1, EWS-FLI1 expression: low (doxycycline-induced shRNA knockdown)
[5] = 0.103 µM, library screen: screen3, EWS-FLI1 expression: high (no doxycycline)
[6] = 0.103 µM, library screen: screen3, EWS-FLI1 expression: low (doxycycline-induced shRNA knockdown)
[7] = 0.25 µM, library screen: screen2, EWS-FLI1 expression: high (no doxycycline)
[8] = 0.25 µM, library screen: screen2, EWS-FLI1 expression: low (doxycycline-induced shRNA knockdown)
[9] = 0.308 µM, library screen: screen3, EWS-FLI1 expression: high (no doxycycline)
[10] = 0.308 µM, library screen: screen3, EWS-FLI1 expression: low (doxycycline-induced shRNA knockdown)
[11] = 0.926 µM, library screen: screen3, EWS-FLI1 expression: high (no doxycycline)
[12] = 0.926 µM, library screen: screen3, EWS-FLI1 expression: low (doxycycline-induced shRNA knockdown)
[13] = 2.5 µM, library screen: screen2, EWS-FLI1 expression: high (no doxycycline)
[14] = 2.5 µM, library screen: screen2, EWS-FLI1 expression: low (doxycycline-induced shRNA knockdown)
[15] = 2.8 µM, library screen: screen3, EWS-FLI1 expression: high (no doxycycline)
[16] = 2.8 µM, library screen: screen3, EWS-FLI1 expression: low (doxycycline-induced shRNA knockdown)
[17] = 8.3 µM, library screen: screen3, EWS-FLI1 expression: high (no doxycycline)
[18] = 8.3 µM, library screen: screen3, EWS-FLI1 expression: low (doxycycline-induced shRNA knockdown)
[19] = 25 µM, library screen: screen3, EWS-FLI1 expression: high (no doxycycline)
[20] = 25 µM, library screen: screen3, EWS-FLI1 expression: low (doxycycline-induced shRNA knockdown)

Oc1ccc([C@H]2Oc3cc(O)cc(O)c3C[C@H]2O)cc1
cell viability (log2) [1]: inactive: 0.0303 | cell viability (log2) [2]: inactive: -0.000667 | cell viability (log2) [3]: inactive: 0.0839 | cell viability (log2) [4]: inactive: -0.00856

O=C1CC(c2ccc(O)cc2)Oc2cc(O)cc(O)c21 (stereo not given)
cell viability (log2) [1]: inactive: 0.0907 | cell viability (log2) [2]: inactive: 0.00298 | cell viability (log2) [3]: inactive: 0.101 | cell viability (log2) [4]: inactive: 0.056

COc1cccc2c1C(=O)c1c(O)c3c(c(O)c1C2=O)C[C@@](O)(C(C)=O)C[C@@H]3O[C@H]1C[C@H](N)[C@H](O)[C@H](C)O1
cell viability (log2) [5]: active: -0.695 | cell viability (log2) [6]: -0.133 ± 0.18 | cell viability (log2) [7]: active: -1.6 | cell viability (log2) [8]: active: -0.269 | cell viability (log2) [9]: active: -1.27 | cell viability (log2) [10]: active: -0.403 | cell viability (log2) [11]: active: -2.5 | cell viability (log2) [12]: active: -0.592 | cell viability (log2) [13]: active: -2.54 | cell viability (log2) [14]: active: -0.371 | cell viability (log2) [15]: active: -3.11 | cell viability (log2) [16]: active: -1.48 | cell viability (log2) [17]: active: -4.09 | cell viability (log2) [18]: active: -3.66 | cell viability (log2) [19]: active: -4.26 | cell viability (log2) [20]: active: -4.25

CNC(=O)c1cc(Oc2ccc(NC(=O)Nc3ccc(Cl)c(C(F)(F)F)c3)cc2)ccn1
cell viability (log2) [5]: inactive: -0.00934 | cell viability (log2) [6]: inactive: 0.068 | cell viability (log2) [9]: inactive: 0.0857 | cell viability (log2) [10]: inactive: 0.0899 | cell viability (log2) [11]: inactive: 0.0368 | cell viability (log2) [12]: inactive: 0.101 | cell viability (log2) [15]: inactive: 0.131 | cell viability (log2) [16]: inactive: 0.0803 | cell viability (log2) [17]: inactive: -0.0131 | cell viability (log2) [18]: inactive: 0.145 | cell viability (log2) [19]: inactive: -0.12 | cell viability (log2) [20]: inactive: 0.128

OCc1ccccc1O[C@@H]1O[C@H](CO)[C@@H](O)[C@H](O)[C@H]1O
cell viability (log2) [1]: inactive: 0.0427 | cell viability (log2) [2]: inactive: 0.0732 | cell viability (log2) [3]: inactive: 0.126 | cell viability (log2) [4]: inactive: 0.0536

Ic1ccc(N2CCN(Cc3c[nH]c4ncccc34)CC2)cc1
cell viability (log2) [7]: inactive: 0.119 | cell viability (log2) [8]: inactive: 0.07 | cell viability (log2) [13]: inactive: 0.0811 | cell viability (log2) [14]: inactive: 0.158

C=CC1=C(C(=O)O)N2C(=O)[C@@H](NC(=O)/C(=N\O)c3csc(N)n3)[C@H]2SC1
cell viability (log2) [5]: inactive: 0.114 | cell viability (log2) [6]: inactive: 0.0737 | cell viability (log2) [9]: inactive: 0.109 | cell viability (log2) [10]: inactive: 0.0907 | cell viability (log2) [11]: inactive: 0.0409 | cell viability (log2) [12]: inactive: 0.0692 | cell viability (log2) [15]: inactive: 0.0192 | cell viability (log2) [16]: inactive: 0.0781 | cell viability (log2) [17]: inactive: 0.0612 | cell viability (log2) [18]: inactive: 0.0513 | cell viability (log2) [19]: inactive: 0.0272 | cell viability (log2) [20]: inactive: 0.13

CC(C1OC(C)(C)C(O)C1O)[C@@H]1CC[C@]2(C)C3=CCC4C(C)(C)C(=O)CC[C@]4(C)C3CC[C@@]12C (stereo not given in full)
cell viability (log2) [1]: inactive: 0.062 | cell viability (log2) [2]: inactive: 0.126 | cell viability (log2) [3]: inactive: 0.148 | cell viability (log2) [4]: inactive: 0.137

CC(=O)NS(=O)(=O)c1ccc(N)cc1
cell viability (log2) [1]: inactive: 0.0404 | cell viability (log2) [2]: inactive: 0.112 | cell viability (log2) [3]: inactive: 0.118 | cell viability (log2) [4]: inactive: 0.0492

CCc1cccc(N(C)C(N)=Nc2cccc3ccccc23)c1
cell viability (log2) [7]: inactive: 0.138 | cell viability (log2) [8]: inactive: 0.102 | cell viability (log2) [13]: inactive: 0.0361 | cell viability (log2) [14]: inactive: 0.156

Cc1cn([C@H]2C=C[C@@H](CO)O2)c(=O)[nH]c1=O
cell viability (log2) [5]: inactive: -0.00295 | cell viability (log2) [6]: inactive: 0.0515 | cell viability (log2) [7]: inactive: 0.197 | cell viability (log2) [8]: inactive: 0.032 | cell viability (log2) [9]: inactive: -0.0178 | cell viability (log2) [10]: inactive: 0.0223 | cell viability (log2) [11]: inactive: 0.0714 | cell viability (log2) [12]: inactive: 0.0163 | cell viability (log2) [13]: inactive: 0.101 | cell viability (log2) [14]: inactive: 0.0899 | cell viability (log2) [15]: inactive: 0.0507 | cell viability (log2) [16]: inactive: 0.0197 | cell viability (log2) [17]: inactive: 0.102 | cell viability (log2) [18]: inactive: 0.0821 | cell viability (log2) [19]: inactive: 0.0208 | cell viability (log2) [20]: inactive: 0.0668

C=C1CC[C@@H]2[C@](C)(CO)[C@H](O)CC[C@@]2(C)[C@@H]1C/C=C1/C(=O)OC[C@H]1O
cell viability (log2) [1]: inactive: 0.0718 | cell viability (log2) [2]: inactive: 0.0195 | cell viability (log2) [3]: inactive: 0.114 | cell viability (log2) [4]: inactive: 0.0291

CC(C)c1ccc2c(c1)CCC1C(C)(CN)CCCC21C (stereo not given)
cell viability (log2) [1]: inactive: 0.0133 | cell viability (log2) [2]: inactive: -0.0819 | cell viability (log2) [3]: inactive: 0.122 | cell viability (log2) [4]: inactive: 0.00337

N[C@@H](Cc1c[nH]c2ccccc12)C(=O)O
cell viability (log2) [1]: inactive: 0.0944 | cell viability (log2) [2]: inactive: 0.145 | cell viability (log2) [7]: inactive: 0.119 | cell viability (log2) [8]: inactive: 0.0955 | cell viability (log2) [3]: inactive: 0.157 | cell viability (log2) [4]: inactive: 0.234 | cell viability (log2) [13]: inactive: 0.198 | cell viability (log2) [14]: inactive: -0.0227

COC1(C2=NCCN2)COc2ccccc2O1 (stereo not given)
cell viability (log2) [1]: inactive: 0.131 | cell viability (log2) [2]: inactive: 0.0261 | cell viability (log2) [7]: inactive: 0.222 | cell viability (log2) [8]: inactive: 0.0687 | cell viability (log2) [3]: inactive: 0.172 | cell viability (log2) [4]: inactive: -0.00705 | cell viability (log2) [13]: inactive: 0.186 | cell viability (log2) [14]: inactive: 0.148

NS(=O)(=O)c1cc2c(cc1C(F)(F)F)NCNS2(=O)=O
cell viability (log2) [1]: inactive: 0.0902 | cell viability (log2) [2]: inactive: 0.11 | cell viability (log2) [3]: inactive: 0.18 | cell viability (log2) [4]: inactive: 0.0973

Cc1c(NC(=O)c2cccnc2)c(=O)n(-c2ccccc2)n1C
cell viability (log2) [1]: inactive: 0.176 | cell viability (log2) [2]: inactive: 0.162 | cell viability (log2) [3]: inactive: 0.224 | cell viability (log2) [4]: inactive: 0.166

O=C(/C=C/c1ccc(O)cc1)c1ccc(O)cc1O
cell viability (log2) [1]: inactive: 0.13 | cell viability (log2) [2]: inactive: 0.0652 | cell viability (log2) [7]: inactive: 0.186 | cell viability (log2) [8]: inactive: 0.167 | cell viability (log2) [3]: inactive: 0.0781 | cell viability (log2) [4]: inactive: 0.0251 | cell viability (log2) [13]: inactive: 0.141 | cell viability (log2) [14]: inactive: 0.124

CS(=O)(=O)OCCCCOS(C)(=O)=O
cell viability (log2) (0.025 µM, library screen: screen2, EWS-FLI1 expression: high (no doxycycline)): inactive: 0.215 | cell viability (log2) (0.025 µM, library screen: screen2, EWS-FLI1 expression: low (doxycycline-induced shRNA knockdown)): inactive: 0.0295 | cell viability (log2) [5]: inactive: 0.0761 | cell viability (log2) [6]: inactive: -0.00186 | cell viability (log2) [1]: inactive: 0.149 | cell viability (log2) [2]: inactive: 0.0863 | cell viability (log2) [7]: inactive: 0.133 | cell viability (log2) [8]: inactive: 0.0683 | cell viability (log2) [9]: inactive: 0.0418 | cell viability (log2) [10]: inactive: 0.169 | cell viability (log2) [11]: inactive: 0.0631 | cell viability (log2) [12]: inactive: 0.108 | cell viability (log2) [3]: inactive: 0.124 | cell viability (log2) [4]: inactive: 0.173 | cell viability (log2) [13]: inactive: 0.139 | cell viability (log2) [14]: inactive: 0.0379 | cell viability (log2) [15]: inactive: 0.0831 | cell viability (log2) [16]: inactive: 0.124 | cell viability (log2) [17]: inactive: 0.0681 | cell viability (log2) [18]: inactive: 0.161 | cell viability (log2) (25 µM, library screen: screen2, EWS-FLI1 expression: high (no doxycycline)): inactive: 0.128 | cell viability (log2) (25 µM, library screen: screen2, EWS-FLI1 expression: low (doxycycline-induced shRNA knockdown)): inactive: 0.0314 | cell viability (log2) [19]: inactive: 0.0754 | cell viability (log2) [20]: inactive: 0.171

Cc1nnc(C(C)C)n1C1C[C@H]2CC[C@@H](C1)N2CC[C@H](NC(=O)C1CCC(F)(F)CC1)c1ccccc1 (stereo not given in full)
cell viability (log2) [5]: inactive: 0.00773 | cell viability (log2) [6]: inactive: 0.0537 | cell viability (log2) [9]: inactive: 0.179 | cell viability (log2) [10]: inactive: 0.0864 | cell viability (log2) [11]: inactive: 0.11 | cell viability (log2) [12]: inactive: 0.0142 | cell viability (log2) [15]: inactive: 0.152 | cell viability (log2) [16]: inactive: 0.0241 | cell viability (log2) [17]: inactive: 0.00455 | cell viability (log2) [18]: inactive: 0.0886 | cell viability (log2) [19]: inactive: 0.0767 | cell viability (log2) [20]: inactive: 0.0769
